Assay results from the RNAGym collection of RNA variant scans (doi:10.1101/gad.245936.114).
Variants at the floor of the assay are shown more often than the library holds them.

B1: tRNA (parent)
chain: CUCUCGGUAGCCAAGUUGGUUUAAGGCGCAAGACUUUAAUUUAUCACUACGAAAUCUUGAGAUCGGGCGUUCGACUCGCCCCCGGGAGAUUUUUUCCUCGAGCAA

Variants of: B1
Assay: nonsense suppression (GFP-seq) (ratio to wild type); higher = more function; SUP4oc tRNA, yeast GFP reporter sort-seq
Method in brief: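 Sorted GFP/RFP bins of yeast were each Illumina-sequenced with a phred ≥30 cutoff; the cells held a genome-integrated ochre-suppressor tRNA variant from a library with ~3% random mutations, a galactose-driven GFP ochre reporter, and RFP. Culture was in raffinose/galactose medium containing 80 mg/L adenine. Nonsense suppression, termed GFPSEQ, is the median GFP/RFP of the bins weighted by each variant's estimated cell share per bin, relative to the unmutated parent tRNA, for variants reaching ≥100 reads and ≥30 cells.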

Nonsense suppression, 0.0343:
A74G G78C

Nonsense suppression, 0.9:
C75U G78A

Nonsense suppression, ≤ 0.026:
G69A G78U
U70C C75G
U71G G73A
C79G C80A
U76G C79A
U76G C79G
G78A A89G
G78A A89U
U76G G85C
U76G G85A
C72G G73U C75G
C75A C81U G86A
C68U C81A G88A
C68G C80G
U70G C77G
U70G C77U
U70G C75U G88A
G69A A74C
C75A G84A
G69C C77G
A74G G88A
G69C C72A
A74G C79U
C75A C82G
U76A G88U
C75G C83A G84C
U70A U76C C83U
C77G A87G
U76C C77A
C79U C80U C83G
U70C
U70G
U70A
C77G C81G G85A
C72G G86C
C68A G85C
C82G C83U
C80A A89C
C80A A89U
C68A C77U
C77U G84U
G69C C80A
U70G G78C
C68A C81G
C68A U71A
U76C G88U A89U
G69A C75U G86C
G69A G88C
U76G G78A C83U
A74G A87U
C80U C82G
C82G G88A
U71G C79G
G69C G88A
G73U U76G
G73U U76C
C80U G85C
C68A U76C G88A
G69U C83A
C72U A74U
G78U C82G
C83A G84U
U70G C83G
C72G A74G
A74G G85U
C68G G69A
G69C C75A
C72G G88U
U71A C77A G84C
U71G G73A G84C
C72A A87U
U71C C82U G84C
U70G C81G
C79A C83A
C68U G69A
G84C A87G
C77A C79U
G67U U71A G78C
G78A G86A
U76G G84C
U70A A74G
G78A C83A
G69A U70C
U70G G88A A89U
C75U C83A
C72A G85C
A74G G78U C82G
C80U G88C
G69A C80G
C83G G84A
A74U
A74G
A74C
G73C C75U
C72U
C72G
C72A
G69U U71G
G69A C81A
U71C C82A
C72A C81A C83A
G69U G88C
C81A G85C
C77A C81U
A74U A87C G88A
C81G G88C
C79U C81U
U70C C79A G88C
G69U C80A
G73U A87G
U70G A74C
U70A U71C
U70A U71A
C82G G84C G88U
C80G G86U
C75U C82A
A74U G88A
U70C C80A C81G
U71C U76A
A74U C80G G84C
C77A G86A
C77A G86C
U70C C79G
C81A G88C
C81A G88A
G69A U76A
G69C U76A G78C
U76G
U76A
G69C U71C U76G
C68A A74C
C68U C77A
C72A G86C
U70A A89G
U70A A89C
G73U
G73C
A74U A87U
C81A G86U
G69C A74C G86U
U71A A89G
U71A A89C
C72G G84C G86A
C81G G84A
U76A C77U
U71G C72U
G69U C75G
C80A
C80G
C72G A89G
C79G A89C
C79G C83G
C72U C81A
C81A G86A G88C
C82G G85A
C75A A89C
C75A A89U
G73U C75G
G73U C75U
U71C G88A
C83G G86U
G78C G88A
C68U U71G
A74C C81U G85C
C68G U71A
C79A C81A
C80A G85A
A74G C81A
A74G C81G
C81A G84C
A74C C77G
C80A C83G
G69C
G69A
G69U
C83A A87C
C72U C75G
A74G U76A
A74G U76C
A74U C81A
A74U C81G
C80A C82A
C80A C82U
C72U C82G
A74C C81U
C68G C75A C82A G86U
C77A C80A
U71G U76C G84U
C75G G86A
G73A C80G
G73A C80A
U76A C81A
C79G G85C
A74G G78A
C72G C83G A87C
G73A C83G
C68G G86A
G69A G86U
C79G C82G
U71G C82G
A74C G84U
U71C C72G
C82G
C82A
C72G C79G
G78A G86C A89C
U70C C77U
G69A U76G G84U
C68A G78A
A74C C79A A89C
U71A G86A
G69U G78A C81U
C82A G84U
C81G A87C
A74U G86C
U76A C82A A89C
C77U C83A
C75A C79A
U70G U71A
G73C G84U
G69A A87C
C77U C80U
G73A G86U
G73A G86C
U76A A89U
U76G G85U G88A
C75G G78C C83A
C77G G84C
C77G G84U
C68G G85U
U76A G86A
G69A C79U
C68U G84A
G78C C81A
C79U C80A A89G
A74C G78C
C68G U70C
A74U G85U
U70A C75A A89C
G73U A89G
A74G C75U
U71C G84A
G69C C81U G84A
A74C C83U
U76G C81G
U76G C81A
G73C C77G
C82U G86C
C83A A89C
G69U C77G
G69U C77A
G69A C72A A74C G84C
C75A G88C
C75G C82A
U71G C77A C79U A87G
U70C G86C
C72U G73C C79G
U70A G73C
U70A G73U
U70C A74G A87C
G78U C80G
G73C G88C
U70C A74G
U71A C83G
U76A G78U
U70G C82G
U70G C82A
G69A G78A G86U
C75G G84C
C80A G88A
C77G G78U
C79A G84C
C79A G84U
C68A A89C
C77G
C77U
C77A
G69C G78C
U76G C83A
A74G G78C C80G
C68G U76C
U76C G88C
U76C G88U
G69A C82G
G78C C80U
U71G A89C
U70A C83G
U70A C83A
C68A U70G
C75A C77U
C83G G85A
G73C G85U
U71C G86U
C77U C79U
C80A C81G
C80A C81U
U70G C75U
U70C G88A
A74C C83G A87G
G69U C72G
C72U G73C U76G
C83U G86A
G73C A87U
A74U C82G
C79A G84A A87G G88A

Nonsense suppression, 0.191:
G73A G84A

Nonsense suppression, 0.972:
C75U

Nonsense suppression, 1:
U76C

Nonsense suppression, 0.0423:
G78A C82G

Nonsense suppression, 0.0294:
C72U G85U

Nonsense suppression, 0.032:
G78A A87U

Nonsense suppression, 0.361:
G73A G84C

Nonsense suppression, 0.0575:
U76C C81U

Nonsense suppression, 0.63:
G78U

Nonsense suppression, 0.0419:
U76A C80U

Nonsense suppression, 0.202:
G78C

Nonsense suppression, 1.04:
C75G

Nonsense suppression, 0.027:
C83U G84U

Nonsense suppression, 0.839:
C75A A87G

Nonsense suppression, 1.05:
C82U

Nonsense suppression, 0.0415:
C81G A87G

Nonsense suppression, 0.775:
G78A

Nonsense suppression, 0.037:
A74C C79U

Nonsense suppression, 0.0263:
G73U C81U

Nonsense suppression, 0.996:
C75A

Nonsense suppression, 0.698:
C75A G78A

Nonsense suppression, 0.0621:
C83U A87G

Nonsense suppression, 0.0768:
G73A A89C

Nonsense suppression, 0.697:
C80U

Nonsense suppression, 0.0357:
A74U C79U

Nonsense suppression, 1.12:
G73A

Nonsense suppression, 0.0271:
G78C G84U
